{"source": "the supplement of paper PMC8728848", "binders": {"B1": {"name": "Tamarinin (protein)", "chain": "CDDSARAGNIVVYWGQGGSDNSEGSLKEACKSGHYNMIVLQQLIVYDDGRDPDLNLGAHCSDCTKLEEQIKYCQNKDIKILLQIGQVVPTQEDVKDVTKNLSEYLLKNFFSGKSGPLGEVYLNGIDIASVPEGNNLKFDELVEALNDSSTERRIYLSASPLCVYPDYYLNKAIQTEKLDFLFVQFFYQNPCIYTEGNPENLFEAMKTWTKNVPESMIFMALPATPNLDGYIPPRVLNKEILPAVSEASNFAGVMIFDRYFDRFRKYSSKIK"}}, "assay_in_all_cases": "glycan array binding signal (z-score within array); higher = stronger binding", "settings_in_all_cases": "glycan notation: IUPAC condensed, linker removed", "key": {"[1]": {"target": "Neu5Ac(a2-6)Gal(b1-4)GlcNAc(b1-2)Man(a1-3)[Man(a1-6)]Man(b1-4)GlcNAc(b1-4)GlcNAc", "how_it_was_run": "(§1)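 The binding signal is a Z-score computed within each array and averaged over linkers. Arrays of the same protein sequence at different concentrations or buffers were also averaged together. Data originate from 3228 arrays in the Consortium for Functional Glycomics database, kept only where the protein sequence was available.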"}, "[2]": {"target": "Neu5Ac(a2-6)Gal(b1-4)GlcNAc(b1-2)Man(a1-3)[Neu5Ac(a2-3)Gal(b1-4)GlcNAc(b1-2)Man(a1-6)]Man(b1-4)GlcNAc(b1-4)GlcNAc", "how_it_was_run": "as §1"}, "[3]": {"target": "Neu5Ac(a2-6)Gal(b1-4)GlcNAc(b1-2)Man(a1-3)[Neu5Ac(a2-6)Gal(b1-4)GlcNAc(b1-2)Man(a1-6)]Man(b1-4)GlcNAc(b1-4)GlcNAc", "how_it_was_run": "as §1"}, "[4]": {"target": "Neu5Ac(a2-6)Gal(b1-4)GlcNAc(b1-2)Man(a1-3)[Neu5Ac(a2-6)Gal(b1-4)GlcNAc(b1-2)Man(a1-6)]Man(b1-4)GlcNAc(b1-4)[Fuc(a1-6)]GlcNAc", "how_it_was_run": "as §1"}, "[5]": {"target": "Neu5Ac(a2-6)Gal(b1-4)GlcNAc(b1-2)Man(a1-6)Man(b1-4)GlcNAc(b1-4)GlcNAc", "how_it_was_run": "as §1"}, "[6]": {"target": "Neu5Ac(a2-6)Gal(b1-4)GlcNAc(b1-2)Man(a1-6)[Gal(b1-4)GlcNAc(b1-2)Man(a1-3)]Man(b1-4)GlcNAc(b1-4)GlcNAc", "how_it_was_run": "as §1"}, "[7]": {"target": "Neu5Ac(a2-6)Gal(b1-4)GlcNAc(b1-2)Man(a1-6)[GlcNAc(b1-2)Man(a1-3)]Man(b1-4)GlcNAc(b1-4)GlcNAc", "how_it_was_run": "as §1"}, "[8]": {"target": "Neu5Ac(a2-6)Gal(b1-4)GlcNAc(b1-2)Man(a1-6)[Man(a1-3)]Man(b1-4)GlcNAc(b1-4)GlcNAc", "how_it_was_run": "as §1"}, "[9]": {"target": "Neu5Ac(a2-6)Gal(b1-4)GlcNAc(b1-2)[Neu5Ac(a2-6)Gal(b1-4)GlcNAc(b1-4)]Man(a1-3)[GlcNAc(b1-4)][Neu5Ac(a2-6)Gal(b1-4)GlcNAc(b1-2)[Neu5Ac(a2-6)Gal(b1-4)GlcNAc(b1-6)]Man(a1-6)]Man(b1-4)GlcNAc(b1-4)GlcNAc", "how_it_was_run": "as §1"}, "[10]": {"target": "Neu5Ac(a2-6)Gal(b1-4)GlcNAc(b1-2)[Neu5Ac(a2-6)Gal(b1-4)GlcNAc(b1-4)]Man(a1-3)[GlcNAc(b1-4)][Neu5Ac(a2-6)Gal(b1-4)GlcNAc(b1-4)Man(a1-6)]Man(b1-4)GlcNAc(b1-4)GlcNAc", "how_it_was_run": "as §1"}, "[11]": {"target": "Neu5Ac(a2-6)Gal(b1-4)GlcNAc(b1-2)[Neu5Ac(a2-6)Gal(b1-4)GlcNAc(b1-6)]Man(a1-6)[Neu5Ac(a2-6)Gal(b1-4)GlcNAc(b1-2)Man(a1-3)][GlcNAc(b1-4)]Man(b1-4)GlcNAc(b1-4)GlcNAc", "how_it_was_run": "as §1"}, "[12]": {"target": "Neu5Ac(a2-6)Gal(b1-4)GlcNAc(b1-3)Gal(b1-3)GlcNAc", "how_it_was_run": "as §1"}, "[13]": {"target": "Neu5Ac(a2-6)Gal(b1-4)GlcNAc(b1-3)Gal(b1-4)GlcNAc", "how_it_was_run": "as §1"}, "[14]": {"target": "Neu5Ac(a2-6)Gal(b1-4)GlcNAc(b1-3)Gal(b1-4)GlcNAc(b1-2)Man(a1-3)[Neu5Ac(a2-6)Gal(b1-4)GlcNAc(b1-3)Gal(b1-4)GlcNAc(b1-2)Man(a1-6)]GalNAc", "how_it_was_run": "as §1"}, "[15]": {"target": "Neu5Ac(a2-6)Gal(b1-4)GlcNAc(b1-3)Gal(b1-4)GlcNAc(b1-3)Gal(b1-4)GlcNAc", "how_it_was_run": "as §1"}, "[16]": {"target": "Neu5Ac(a2-6)Gal(b1-4)GlcNAc(b1-3)Gal(b1-4)GlcNAc(b1-3)Gal(b1-4)GlcNAc(b1-2)Man(a1-3)[Neu5Ac(a2-6)Gal(b1-4)GlcNAc(b1-3)Gal(b1-4)GlcNAc(b1-3)Gal(b1-4)GlcNAc(b1-2)Man(a1-6)]GalNAc", "how_it_was_run": "as §1"}, "[17]": {"target": "Neu5Ac(a2-6)Gal(b1-4)GlcNAc(b1-3)Gal(b1-4)GlcNAc(b1-3)GalNAc", "how_it_was_run": "as §1"}, "[18]": {"target": "Neu5Ac(a2-6)Gal(b1-4)GlcNAc(b1-3)Gal(b1-4)GlcNAc(b1-3)[Neu5Ac(a2-6)Gal(b1-4)GlcNAc(b1-3)Gal(b1-4)GlcNAc(b1-6)]GalNAc", "how_it_was_run": "as §1"}, "[19]": {"target": "Neu5Ac(a2-6)Gal(b1-4)GlcNAc(b1-3)Gal(b1-4)GlcNAc(b1-6)[Gal(b1-3)]GalNAc", "how_it_was_run": "as §1"}, "[20]": {"target": "Neu5Ac(a2-6)Gal(b1-4)GlcNAc(b1-3)Gal(b1-4)[Fuc(a1-3)]GlcNAc(b1-3)Gal(b1-4)[Fuc(a1-3)]GlcNAc", "how_it_was_run": "as §1"}, "[21]": {"target": "Neu5Ac(a2-6)Gal(b1-4)GlcNAc(b1-3)GalNAc", "how_it_was_run": "as §1"}, "[22]": {"target": "Neu5Ac(a2-6)Gal(b1-4)GlcNAc(b1-3)[Neu5Ac(a2-6)Gal(b1-4)GlcNAc(b1-6)]GalNAc", "how_it_was_run": "as §1"}, "[23]": {"target": "Neu5Ac(a2-6)Gal(b1-4)GlcNAc(b1-6)GalNAc", "how_it_was_run": "as §1"}, "[24]": {"target": "Neu5Ac(a2-6)Gal(b1-4)GlcNAc(b1-6)[Gal(b1-3)GlcNAc(b1-3)]Gal(b1-4)Glc", "how_it_was_run": "as §1"}, "[25]": {"target": "Neu5Ac(a2-6)Gal(b1-4)GlcNAc(b1-6)[Gal(b1-3)]GalNAc", "how_it_was_run": "as §1"}, "[26]": {"target": "Neu5Ac(a2-6)Gal(b1-4)GlcNAc6S", "how_it_was_run": "as §1"}, "Neu5Ac(a2-6)GalNAc": {"target": "Neu5Ac(a2-6)GalNAc", "how_it_was_run": "as §1"}, "[27]": {"target": "Neu5Ac(a2-6)GalNAc(b1-4)GlcNAc", "how_it_was_run": "as §1"}, "[28]": {"target": "Neu5Ac(a2-6)GalNAc(b1-4)GlcNAc6S", "how_it_was_run": "as §1"}, "[29]": {"target": "Neu5Ac(a2-6)GlcNAc(b1-4)GlcNAc", "how_it_was_run": "as §1"}, "[30]": {"target": "Neu5Ac(a2-6)GlcNAc(b1-4)GlcNAc(b1-4)GlcNAc", "how_it_was_run": "as §1"}}, "note": "The list shows a part of the results.", "data": [{"binder": "B1", "values": [{"measurement": "glycan array binding signal (z-score)", "setting": "[1]", "value": -0.175}, {"measurement": "glycan array binding signal (z-score)", "setting": "[2]", "value": -0.271}, {"measurement": "glycan array binding signal (z-score)", "setting": "[3]", "value": -0.443}, {"measurement": "glycan array binding signal (z-score)", "setting": "[4]", "value": -0.131}, {"measurement": "glycan array binding signal (z-score)", "setting": "[5]", "value": -0.404}, {"measurement": "glycan array binding signal (z-score)", "setting": "[6]", "value": -0.424}, {"measurement": "glycan array binding signal (z-score)", "setting": "[7]", "value": -0.377}, {"measurement": "glycan array binding signal (z-score)", "setting": "[8]", "value": -0.41}, {"measurement": "glycan array binding signal (z-score)", "setting": "[9]", "value": -0.493}, {"measurement": "glycan array binding signal (z-score)", "setting": "[10]", "value": -0.936}, {"measurement": "glycan array binding signal (z-score)", "setting": "[11]", "value": -0.384}, {"measurement": "glycan array binding signal (z-score)", "setting": "[12]", "value": -0.332}, {"measurement": "glycan array binding signal (z-score)", "setting": "[13]", "value": -0.312}, {"measurement": "glycan array binding signal (z-score)", "setting": "[14]", "value": -0.51}, {"measurement": "glycan array binding signal (z-score)", "setting": "[15]", "value": -0.331}, {"measurement": "glycan array binding signal (z-score)", "setting": "[16]", "value": -0.094}, {"measurement": "glycan array binding signal (z-score)", "setting": "[17]", "value": -0.332}, {"measurement": "glycan array binding signal (z-score)", "setting": "[18]", "value": -0.119}, {"measurement": "glycan array binding signal (z-score)", "setting": "[19]", "value": -0.385}, {"measurement": "glycan array binding signal (z-score)", "setting": "[20]", "value": -0.351}, {"measurement": "glycan array binding signal (z-score)", "setting": "[21]", "value": 5.41}, {"measurement": "glycan array binding signal (z-score)", "setting": "[22]", "value": 0.766}, {"measurement": "glycan array binding signal (z-score)", "setting": "[23]", "value": 0.201}, {"measurement": "glycan array binding signal (z-score)", "setting": "[24]", "value": -0.361}, {"measurement": "glycan array binding signal (z-score)", "setting": "[25]", "value": -0.138}, {"measurement": "glycan array binding signal (z-score)", "setting": "[26]", "value": -0.131}, {"measurement": "glycan array binding signal (z-score)", "setting": "Neu5Ac(a2-6)GalNAc", "value": -0.194}, {"measurement": "glycan array binding signal (z-score)", "setting": "[27]", "value": -0.467}, {"measurement": "glycan array binding signal (z-score)", "setting": "[28]", "value": 0.087}, {"measurement": "glycan array binding signal (z-score)", "setting": "[29]", "value": -0.402}, {"measurement": "glycan array binding signal (z-score)", "setting": "[30]", "value": -0.322}]}]}
